We go through 172 sequences from paper PMC4242493.

The list shows a part of the results. The list includes weakly bound sequences.

This experiment addresses MaxL homodimer (UniProt P61244). The experiment is described as follows: universal protein-binding microarray (PBM). As to conditions: PBS-based mixture, 10 nM His-tagged protein dimer, 2% milk, 200 ng/uL BSA, 50 ng/uL salmon testes DNA, 0.02% TX-100; detection with Alexa 488 anti-His …; high values mean tight binding; most listed sequences are background and not binding sites; double strand, one strand shown.
Chain of UniProt P61244 (P61244 whole entry): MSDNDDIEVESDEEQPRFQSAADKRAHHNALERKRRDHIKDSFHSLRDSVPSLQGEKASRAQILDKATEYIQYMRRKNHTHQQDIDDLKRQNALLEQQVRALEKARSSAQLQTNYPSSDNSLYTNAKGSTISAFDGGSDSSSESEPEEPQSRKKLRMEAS
On to AGGGTGGG, for which the binding signal (normalized occupancy) was 0.0853.

Consider CTTTAACA, for which the binding signal (normalized occupancy) stood at 0.0708.

CGGTCAAA: the binding signal (normalized occupancy) amounted to 0.0736.

As for AATGATTC, the binding signal (normalized occupancy) stood at 0.0753.

On to ATTGATGC, for which the binding signal (normalized occupancy) is 0.0823.

Take ACAGGATC: the binding signal (normalized occupancy) came to 0.0717.

As to CCACACCA, the binding signal (normalized occupancy) amounted to 0.0899.

Take GGCGAGAC: the binding signal (normalized occupancy) is 0.0734.

As for GACGTGCC, the binding signal (normalized occupancy) is 0.0841.

As for ACCGAAAG, the binding signal (normalized occupancy) came out at 0.0686.

Take GCTCCCGA: the binding signal (normalized occupancy) worked out at 0.0734.

As to ATCACAGG, the binding signal (normalized occupancy) was 0.0758.

CACGAACA: the binding signal (normalized occupancy) amounted to 0.0802.

Regarding CGTTGAAG, the binding signal (normalized occupancy) amounted to 0.0758.

Consider CTCCGCCC, for which the binding signal (normalized occupancy) was found to be 0.0678.

In the case of GGGGAACA, the binding signal (normalized occupancy) was determined as 0.081.

With AACGCGAT, the binding signal (normalized occupancy) was 0.0781.

On to CAAGCCTG, for which the binding signal (normalized occupancy) turned out to be 0.0719.

In the case of AGTGCACT, the binding signal (normalized occupancy) came out at 0.0755.

Turning to ATGGCATG, the binding signal (normalized occupancy) was 0.0968.

Take CGTTAGCA: the binding signal (normalized occupancy) stood at 0.0766.

Consider AATAACCC, for which the binding signal (normalized occupancy) was found to be 0.0806.

On to CAACTGGC, for which the binding signal (normalized occupancy) is 0.0716.

Take ATATTCCA: the binding signal (normalized occupancy) was 0.081.

In the case of GACTTAGC, the binding signal (normalized occupancy) was 0.0702.

As to AAGAAGCG, the binding signal (normalized occupancy) is 0.0704.

For CAACAACG, the binding signal (normalized occupancy) was 0.0753.

With AAAAAACG, the binding signal (normalized occupancy) amounted to 0.0732.

TAGTAACA: the binding signal (normalized occupancy) was 0.0747.

In the case of TATGTAGA, the binding signal (normalized occupancy) was found to be 0.081.

With CCAAAAAC, the binding signal (normalized occupancy) came to 0.072.

Take ATAGATTA: the binding signal (normalized occupancy) was determined as 0.0827.

For the sequence CTAGTATC, the binding signal (normalized occupancy) is 0.0723.

For the sequence ACGCTGAA, the binding signal (normalized occupancy) amounted to 0.0752.

As for AGCACACA, the binding signal (normalized occupancy) is 0.0906.

Take GCGCGTCA: the binding signal (normalized occupancy) was 0.0723.

Regarding ATCAACAG, the binding signal (normalized occupancy) was determined as 0.0796.

Take AACTGCTT: the binding signal (normalized occupancy) turned out to be 0.0665.

Consider CGCGCGCC, for which the binding signal (normalized occupancy) was 0.0783.

With ACCCTAGG, the binding signal (normalized occupancy) turned out to be 0.068.

As to ACGCGAGT, the binding signal (normalized occupancy) was determined as 0.0833.

In the case of CACTGCAA, the binding signal (normalized occupancy) was found to be 0.0711.

CCTTAGAC: the binding signal (normalized occupancy) was 0.0715.

For the sequence AATCCAAA, the binding signal (normalized occupancy) was determined as 0.0767.

As for ACTGTGGA, the binding signal (normalized occupancy) amounted to 0.0744.

As for AACATGCT, the binding signal (normalized occupancy) was 0.0905.

For the sequence GAATGGTC, the binding signal (normalized occupancy) was determined as 0.0803.

Turning to CCGAGTCC, the binding signal (normalized occupancy) amounted to 0.0711.

CTTGGTCA: the binding signal (normalized occupancy) is 0.0735.

For the sequence GGTCCACC, the binding signal (normalized occupancy) is 0.0747.

As to ATTGTTCC, the binding signal (normalized occupancy) worked out at 0.071.

For CACTCGCC, the binding signal (normalized occupancy) came to 0.0795.

In the case of GTCGGAAA, the binding signal (normalized occupancy) was determined as 0.0697.

As to AGGTCCCA, the binding signal (normalized occupancy) turned out to be 0.0777.

Consider GGAGCGAA, for which the binding signal (normalized occupancy) came out at 0.0664.

As for ACGAAAAA, the binding signal (normalized occupancy) turned out to be 0.0756.

Turning to CAAACAAG, the binding signal (normalized occupancy) is 0.0708.

Take ACCTGTAC: the binding signal (normalized occupancy) is 0.0799.

As for AATAGCAA, the binding signal (normalized occupancy) stood at 0.0783.

For AACTTGAG, the binding signal (normalized occupancy) turned out to be 0.0767.

For CTTCCAAC, the binding signal (normalized occupancy) was 0.0716.

On to GCTTCTAC, for which the binding signal (normalized occupancy) was determined as 0.0736.

CACGTGGA: the binding signal (normalized occupancy) came to 0.768.

With CGAGATGA, the binding signal (normalized occupancy) amounted to 0.0745.

Turning to AAACGCTT, the binding signal (normalized occupancy) was 0.0713.

As to CCACAAAG, the binding signal (normalized occupancy) amounted to 0.0704.

AACTTATG: the binding signal (normalized occupancy) came to 0.0772.

For the sequence CTTTGTCA, the binding signal (normalized occupancy) worked out at 0.0757.

As for GCCGTGCA, the binding signal (normalized occupancy) came to 0.0768.

As to CGCGCACA, the binding signal (normalized occupancy) was determined as 0.0822.

On to GACACTTA, for which the binding signal (normalized occupancy) was found to be 0.0771.

For AGCCACAG, the binding signal (normalized occupancy) was found to be 0.0728.

AGGACCAC: the binding signal (normalized occupancy) is 0.0765.

As for CAGGTCCC, the binding signal (normalized occupancy) came out at 0.0743.

Turning to ACCAGGAC, the binding signal (normalized occupancy) stood at 0.0717.

Turning to AACGGGGA, the binding signal (normalized occupancy) turned out to be 0.0725.

For ACTCGGTC, the binding signal (normalized occupancy) came to 0.0738.

Turning to ACCCGGTG, the binding signal (normalized occupancy) was found to be 0.0769.

As to ACAAAGAC, the binding signal (normalized occupancy) is 0.07.

Regarding CGTGCAGA, the binding signal (normalized occupancy) is 0.0896.

As for AACTTTTC, the binding signal (normalized occupancy) is 0.0762.

In the case of GACATGAA, the binding signal (normalized occupancy) is 0.0775.

As for ACAACAGG, the binding signal (normalized occupancy) was 0.074.

Consider TCTTTGCA, for which the binding signal (normalized occupancy) worked out at 0.0756.

With CTGGAAAG, the binding signal (normalized occupancy) came to 0.0676.

For the sequence GCTTCCGA, the binding signal (normalized occupancy) is 0.0699.

In the case of CCCCGAGA, the binding signal (normalized occupancy) was determined as 0.0768.

As for ACGACACA, the binding signal (normalized occupancy) came out at 0.0758.

For GTTAATTA, the binding signal (normalized occupancy) amounted to 0.0767.

With ATTTACCC, the binding signal (normalized occupancy) came to 0.0798.

Regarding GATGCTGC, the binding signal (normalized occupancy) is 0.078.

For the sequence CTCCGCAC, the binding signal (normalized occupancy) was determined as 0.0692.

Take GTATCCTA: the binding signal (normalized occupancy) came out at 0.0721.

For AAAGTATT, the binding signal (normalized occupancy) stood at 0.0739.

Turning to ACTCCCCT, the binding signal (normalized occupancy) came to 0.0719.

For ACAAAACG, the binding signal (normalized occupancy) was 0.0797.

GTCGTTTA: the binding signal (normalized occupancy) was found to be 0.0732.

For CGTGAAGA, the binding signal (normalized occupancy) came to 0.0801.

As to AGCTGTAT, the binding signal (normalized occupancy) came to 0.075.

As for GCCGTAGC, the binding signal (normalized occupancy) was found to be 0.0677.

Consider ATCGCCGG, for which the binding signal (normalized occupancy) came to 0.0665.

For GAATAGGA, the binding signal (normalized occupancy) was found to be 0.0763.

Regarding ACGAAGGA, the binding signal (normalized occupancy) was 0.0734.

In the case of CATGGGGC, the binding signal (normalized occupancy) was 0.0935.

On to CCAATCCC, for which the binding signal (normalized occupancy) was 0.0814.

For the sequence TATCTCCA, the binding signal (normalized occupancy) stood at 0.0757.

For the sequence CCGCAACA, the binding signal (normalized occupancy) worked out at 0.0775.

TGACGTCA: the binding signal (normalized occupancy) is 0.0925.

As for ACTATTTG, the binding signal (normalized occupancy) turned out to be 0.0747.

As to ACTAGCGC, the binding signal (normalized occupancy) came to 0.0701.

For the sequence AGGAAACA, the binding signal (normalized occupancy) was 0.0721.

With CAGATGAG, the binding signal (normalized occupancy) stood at 0.0786.

As for ACATCAGC, the binding signal (normalized occupancy) worked out at 0.0817.

As for AAAAAATC, the binding signal (normalized occupancy) amounted to 0.0743.

Take CGGAGAGC: the binding signal (normalized occupancy) turned out to be 0.072.

For the sequence CGCCGCGC, the binding signal (normalized occupancy) was determined as 0.0775.

For GAGGCAAC, the binding signal (normalized occupancy) is 0.0759.

CGATCGCG: the binding signal (normalized occupancy) came to 0.0735.

Take GCGACGTA: the binding signal (normalized occupancy) was determined as 0.0777.

As to ATAAAAGG, the binding signal (normalized occupancy) worked out at 0.0778.

As to ACTGGAGG, the binding signal (normalized occupancy) was found to be 0.0727.

For the sequence AAAGGATC, the binding signal (normalized occupancy) stood at 0.0735.

With GATGCACC, the binding signal (normalized occupancy) turned out to be 0.0775.

Turning to CTTTGCGA, the binding signal (normalized occupancy) was determined as 0.0718.

As for GAGCTAAC, the binding signal (normalized occupancy) is 0.0666.

Consider AGATCCGG, for which the binding signal (normalized occupancy) is 0.0735.

Take CGCCTAAC: the binding signal (normalized occupancy) is 0.0704.

AGCTGCTA: the binding signal (normalized occupancy) came out at 0.0731.

Consider AAACAAGT, for which the binding signal (normalized occupancy) was found to be 0.0719.

Take ACACGAAG: the binding signal (normalized occupancy) is 0.0713.

With CGGGCAGC, the binding signal (normalized occupancy) came out at 0.0655.

For the sequence CTAATTTC, the binding signal (normalized occupancy) worked out at 0.0739.

As for CTAAACGC, the binding signal (normalized occupancy) amounted to 0.0744.

ACCCTGTC: the binding signal (normalized occupancy) was found to be 0.075.

With CTACATTC, the binding signal (normalized occupancy) stood at 0.0756.

For ACTGTTTA, the binding signal (normalized occupancy) was found to be 0.0699.

CTACTAGA: the binding signal (normalized occupancy) was 0.0787.

For the sequence ACCAGGCA, the binding signal (normalized occupancy) came to 0.0736.

With TCATCCCA, the binding signal (normalized occupancy) was 0.0787.

As to CAAAAGTC, the binding signal (normalized occupancy) came to 0.0669.

ATCGCAGG: the binding signal (normalized occupancy) turned out to be 0.0683.

Consider CCATGAAG, for which the binding signal (normalized occupancy) came out at 0.0784.

In the case of CGACCTCG, the binding signal (normalized occupancy) is 0.0723.

Consider CTGAGCTC, for which the binding signal (normalized occupancy) worked out at 0.0672.

As for ACGTCTAA, the binding signal (normalized occupancy) stood at 0.0724.

For GAATTCTA, the binding signal (normalized occupancy) is 0.0768.

In the case of GTGATGGA, the binding signal (normalized occupancy) came out at 0.08.

For the sequence AACTACAC, the binding signal (normalized occupancy) stood at 0.0819.

For GCACCAAC, the binding signal (normalized occupancy) stood at 0.0757.

For the sequence CACCTGGG, the binding signal (normalized occupancy) came out at 0.0841.

As for CGTTTAGA, the binding signal (normalized occupancy) amounted to 0.0747.

As to CCTCTACA, the binding signal (normalized occupancy) stood at 0.0806.

Turning to AATGAGCC, the binding signal (normalized occupancy) amounted to 0.0755.

As to ACTATACT, the binding signal (normalized occupancy) was found to be 0.0795.

Turning to CACGAGTA, the binding signal (normalized occupancy) came to 0.103.

Take ATGCAAAC: the binding signal (normalized occupancy) was 0.0833.

On to AAGATTCC, for which the binding signal (normalized occupancy) amounted to 0.0846.

Take ACAACAGA: the binding signal (normalized occupancy) was 0.0735.

As for CCAAGACG, the binding signal (normalized occupancy) amounted to 0.0722.

In the case of ATAGTACC, the binding signal (normalized occupancy) was 0.0781.

Consider GCCTTACA, for which the binding signal (normalized occupancy) was found to be 0.0739.

For the sequence AAGCGATC, the binding signal (normalized occupancy) was found to be 0.0682.

Take ATCAAAAT: the binding signal (normalized occupancy) was 0.0754.

Turning to CCCCTTGA, the binding signal (normalized occupancy) is 0.0791.

CGAGTACG: the binding signal (normalized occupancy) came out at 0.0713.

Take CTACGTTA: the binding signal (normalized occupancy) was found to be 0.0743.

For ATTCCCCG, the binding signal (normalized occupancy) came to 0.0752.

Consider ATCTGACA, for which the binding signal (normalized occupancy) was 0.0776.

For the sequence TCGCCTAA, the binding signal (normalized occupancy) came out at 0.0717.

Take AGTTCCTA: the binding signal (normalized occupancy) came out at 0.0689.

On to GGAGTAAC, for which the binding signal (normalized occupancy) was 0.0708.

Consider CGGAGCAA, for which the binding signal (normalized occupancy) is 0.068.
